Assay results: the supplement of paper PMC8512760
Some of the results follow. Single values are uncertain, as repeats are few or missing.

Assays:
Experiment in all cases: cell viability relative to vehicle (% of vehicle); basal-like triple-negative breast cancer lines; higher = less cytotoxic
Details in all cases: 10 µM; 72 h
HCC-1143 = system: HCC-1143
HCC-1187 = system: HCC-1187
MDA-468 = system: MDA-468
SUM-149 = system: SUM-149
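Further: stably firefly luciferase-GFP labeled cells in 96-well plates, viability read as luciferase photon flux after d-luciferin addition, treated wells normalized to vehicle wells, single-dose high-throughput screen.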

| SMILES | cell viability (HCC-1143) | cell viability (HCC-1187) | cell viability (MDA-468) | cell viability (SUM-149) |
| --- | --- | --- | --- | --- |
| N.N.[Cl][Pt+2][Cl] [Cisplatin] | 91.4 | 121 | 113 | 103 |
| CC(N)(Cc1ccc(O)c(O)c1)C(=O)O (stereo not drawn) [Methyldopa] | 92.6 | 87.8 | 104 | 104 |
| CC(=O)OCC[N+](C)(C)C.[Cl-] [Acetylcholine Chloride] | 73.8 | 88.1 | 86.3 | 93.8 |
| CN(C)CCCN1c2ccccc2CCc2ccc(Cl)cc21.Cl [Clomipramine HCl] | 68.7 | 100 | 97.5 | 81.5 |
| CC(=O)Oc1ccccc1C(=O)Nc1ncc([N+](=O)[O-])s1 [Nitazoxanide] | 187 |  | 159 | 146 |
| CC(=O)C1CCC2C3CC=C4CC(O)CCC4(C)C3CCC12C (stereo not drawn) [Pregnenolone] | 73.5 | 90.7 | 104 | 89.2 |
